Source: PMC12136788
The list shows a part of the results.

T1: UNK ZnF1-3 (human, UniProt Q9C0B0 31-174)
T1 sequence: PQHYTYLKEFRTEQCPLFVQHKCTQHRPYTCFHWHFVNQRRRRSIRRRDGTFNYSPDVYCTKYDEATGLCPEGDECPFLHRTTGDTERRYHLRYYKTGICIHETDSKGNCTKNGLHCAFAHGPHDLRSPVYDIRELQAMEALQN

B1: chr2:32640565:32640566:+_ENSG00000115760_ENST00000421745|hu_hu|motif|central (ssRNA)
RNA: GGGAGUUCUACAGUCCGACGAUCGCAUGUCCGCAGUCCUACCAACAAAUGAAUUCCGUCAGCACAAGGAGUUAUUGAGUCGGUACAAAGAUUCUCCUCCUCUGCAAACUUUGGCAGCCUCAAGCACUGAACCAAAGUCCCAGGCAACAGAGGAUUGAGCAUCA
B2: 45157708_45158563_316_5pUTR_ENSMUSG00000022664_ENSMUST00000023344|mouse|control|control (ssRNA)
RNA: GGGAGUUCUACAGUCCGACGAUCUUUUUAAUUGCCUUAAGAAGAUCACUUUCAUGAGCAGCCCCGUCGGCAGACCUCAGUCGCUCAGGGAAGGUUCUAGUGCAAGAACGGACAUCAUAGAGCCGACAUAGUGACUGCCUAAGUCAACAGAGGAUUGAGCAUCA
B3: chr6:41757443:41757444:+_ENSG00000214736_ENST00000398881|hu_mus|hu_hu_hu_mus_False|38_108 (ssRNA)
RNA: GGGAGUUCUACAGUCCGACGAUCGAACUGUCUGCUGGCAACAUCUCAGCCGACACUGGGGGAUGGGGGGGCAGUGGGGGGGGGUUCAGGCAAGGAGAAGAAAAGUGCUUCAGCUGCCACUCAGGUAGGAUCUUGUGGUCACAGCAACAGAGGAUUGAGCAUCA
B4: 30679904_30680152_861_3pUTR_ENSG00000156860_ENST00000287468|human|control|control (ssRNA)
RNA: GGGAGUUCUACAGUCCGACGAUCGGGAGGCGAAGGCUGGUGGGGCCCCUGGGCUUUCUUUCUGGGCAAAGACGGCGCCGGAGUUGAAUGUGGGGCUGCCCAGGCCUCCAAAGGCCCCGUUGGAGAGGGCAGCCAAAGAGGCGACAACAGAGGAUUGAGCAUCA
B5: chr5:180275300:180275301:-_ENSG00000196670_ENST00000512132|hu_hu|motif|central (ssRNA)
RNA: GGGAGUUCUACAGUCCGACGAUCUCAUCAUCACUGCCCCCUCCCAAACCAAUUACAUCAAGUUUAUACUUAAAGACCACGGAUAUUAAAUAAAUUUAUAUUCCCUGAAACCUAUCCUCCCUGAAUUUGCCUGUUGGAGGCCCUCAACAGAGGAUUGAGCAUCA
B6: chr17:60770872:60770873:+_ENSG00000011028_ENST00000303375|hu_hu|hu_hu_hu_mus_True|88_108 (ssRNA)
RNA: GGGAGUUCUACAGUCCGACGAUCUCUCUUUUCUUUUAAAAAAAAAGUUUAAAAACAAUAGCACAUUUCGAGAAUCAAGAACUACAAUAGAGGGUCCGCUUUGAGUUUUUGUUCACAUCGUCCUGCACUGGGACACGGGGACUGCAACAGAGGAUUGAGCAUCA

target: T1, UNK ZnF1-3; assay: nsRBNS (natural sequence RNA bind-n-seq); RBNS binding buffer (assumed for nsRBNS): 25 mM Tris pH 7.5, 150 mM KCl, 3 mM MgCl2, 0.01% Triton X-100, 500 ug/ml BSA, 20 U/ml SUPERase-In, 4 C; UNK is unkempt and MSI1 is Musashi-1; names of the RNAs are library labels; protein concentration not given here; high values mean tight binding

Binder | binding signal [enrichment R]
B1 | 0.993
B2 | 0.548
B3 | 1.6
B4 | 1.05
B5 | 1.98
B6 | 1.29
